From the supplement of paper PMC10037445
Over roughly 2,900 compounds, “IRF Lucia reporter activity, fold change vs agonist alone” has its median near 0.9; the highest 2% begin near 2.8. This is one part of the list.

What was measured:
[1] = system: RAW-Dual; assay: IRF Lucia reporter activity, fold change vs agonist alone; higher = enhanced IRF activity; conditions: agonist: MPLA (TLR4) […]
Summary of the method: (§1)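 Library stock was pin-tooled at 50 nL into 384-well plates of RAW-Dual macrophages (50,000 cells/well, DMEM), followed 1 h later by a PRR agonist, and the cells were kept at 37 °C, 5% CO2. Supernatant collected after 20 hours was read for IRF by QuantiLuc luminescence and for NF-κB by QuantiBlue absorbance at 620 nm. Reporter activity is fold change over agonist-alone wells, and a well counted as cytotoxic when its IncuCyte confluency was below 70% of agonist controls in both mask sets.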

[2] = system: RAW-Dual; assay: IRF Lucia reporter activity, fold change vs agonist alone; cytotoxicity flag (confluency mask): not cytotoxic; higher = enhanced IRF activity
Summary of the method: as §1

[3] = system: RAW-Dual; assay: IRF Lucia reporter activity, fold change vs agonist alone; cytotoxicity flag (confluency mask): cytotoxic (confluency <70% of control); higher = enhanced IRF activity
Summary of the method: as §1

[4] = library stock concentration (final ~1000-fold dilution): 10 mM, cytotoxicity flag (confluency mask): not cytotoxic
[5] = agonist: 3'3'-cGAMP (STING) 10 ug/mL
[6] = library stock concentration (final ~1000-fold dilution): 10 mM, cytotoxicity flag (confluency mask): cytotoxic (confluency <70% of control)

## CC(C)OC(=O)CCC/C=C\CC1C(O)CC(O)C1CCC(O)CCc1ccccc1 (stereo not given)
[1]; [4]
  IRF Lucia reporter activity: 1.57

## CC(C)OC(=O)CCC/C=C\CC1C(O)CC(O)C1CCC(O)CCc1ccccc1 (stereo not given) (library stock concentration (final ~1000-fold dilution): 10 mM)
[2]; [5]
  IRF Lucia reporter activity: 0.948
[2]; agonist: LPS (TLR4) 0.1 ug/mL
  IRF Lucia reporter activity: 1.18

## O=C1CCC(N2C(=O)c3ccccc3C2=O)C(=O)N1 (stereo not given) (library stock concentration (final ~1000-fold dilution): 10 mM)
[2]; [5]
  IRF Lucia reporter activity: 1
[2]; agonist: LPS (TLR4) 0.1 ug/mL
  IRF Lucia reporter activity: 0.911

## O=C1CCC(N2C(=O)c3ccccc3C2=O)C(=O)N1 (stereo not given)
[1]; [4]
  IRF Lucia reporter activity: 1.08

## O=C1C2C3CCC(C3)C2C(=O)N1CC1CCCCC1CN1CCN(c2nsc3ccccc23)CC1 (stereo not given)
[1]; [4]
  IRF Lucia reporter activity: 1

## O=C1C2C3CCC(C3)C2C(=O)N1CC1CCCCC1CN1CCN(c2nsc3ccccc23)CC1 (stereo not given) (library stock concentration (final ~1000-fold dilution): 10 mM)
[2]; [5]
  IRF Lucia reporter activity: 1
[2]; agonist: LPS (TLR4) 0.1 ug/mL
  IRF Lucia reporter activity: 0.938

## CN(C)CCCn1cc(C2=C(c3c[nH]c4ccccc34)C(=O)NC2=O)c2ccccc21 (library stock concentration (final ~1000-fold dilution): 10 mM)
[3]; [5]
  IRF Lucia reporter activity: 0.0231
[3]; agonist: LPS (TLR4) 0.1 ug/mL
  IRF Lucia reporter activity: 0.0782

## CN(C)CCCn1cc(C2=C(c3c[nH]c4ccccc34)C(=O)NC2=O)c2ccccc21
[1]; [6]
  IRF Lucia reporter activity: 0.0773

## CNC(C)C(=O)NC(C(=O)N1CCCC1c1nc(C(=O)c2ccc(F)cc2)cs1)C1CCCCC1 (stereo not given)
[1]; [6]
  IRF Lucia reporter activity: 0.383

## CNC(C)C(=O)NC(C(=O)N1CCCC1c1nc(C(=O)c2ccc(F)cc2)cs1)C1CCCCC1 (stereo not given) (library stock concentration (final ~1000-fold dilution): 10 mM)
[3]; [5]
  IRF Lucia reporter activity: 0.262
[3]; agonist: LPS (TLR4) 0.1 ug/mL
  IRF Lucia reporter activity: 0.325

## O=C(Nc1cccc(Nc2ncc(Br)c(NCCc3cnc[nH]3)n2)c1)N1CCCC1
[1]; [4]
  IRF Lucia reporter activity: 0.0526

## O=C(Nc1cccc(Nc2ncc(Br)c(NCCc3cnc[nH]3)n2)c1)N1CCCC1 (library stock concentration (final ~1000-fold dilution): 10 mM)
[2]; [5]
  IRF Lucia reporter activity: 0.0254
[2]; agonist: LPS (TLR4) 0.1 ug/mL
  IRF Lucia reporter activity: 0.0368

## Cc1cc(C)nc(SCC(=O)Nc2ncc(Cc3cccc4ccccc34)s2)n1 (library stock concentration (final ~1000-fold dilution): 10 mM)
[2]; [5]
  IRF Lucia reporter activity: 0.189
[2]; agonist: LPS (TLR4) 0.1 ug/mL
  IRF Lucia reporter activity: 0.972

## C#CCC(Cc1cnc2nc(N)nc(N)c2n1)c1ccc(C(=O)NC(CCC(=O)O)C(=O)O)cc1 (stereo not given) (library stock concentration (final ~1000-fold dilution): 10 mM)
[2]; [5]
  IRF Lucia reporter activity: 0.96
[2]; agonist: LPS (TLR4) 0.1 ug/mL
  IRF Lucia reporter activity: 0.977

## C#CCC(Cc1cnc2nc(N)nc(N)c2n1)c1ccc(C(=O)NC(CCC(=O)O)C(=O)O)cc1 (stereo not given)
[1]; [4]
  IRF Lucia reporter activity: 0.71

## O=C(O)CCCCC1CCSS1 (stereo not given) (library stock concentration (final ~1000-fold dilution): 10 mM)
[2]; [5]
  IRF Lucia reporter activity: 0.02
[2]; agonist: LPS (TLR4) 0.1 ug/mL
  IRF Lucia reporter activity: 0.0586

## COc1cc2c(Oc3ccc4[nH]c(C)cc4c3F)ccnc2cc1OCC1(N)CC1.Cl.Cl (library stock concentration (final ~1000-fold dilution): 10 mM)
[3]; [5]
  IRF Lucia reporter activity: 0.184
[3]; agonist: LPS (TLR4) 0.1 ug/mL
  IRF Lucia reporter activity: 1.04

## C#Cc1cccc(Nc2ncnc3cc(OCCOC)c(OCCOC)cc23)c1.Cl
[1]; library stock concentration (final ~1000-fold dilution): 2 mM, cytotoxicity flag (confluency mask): not cytotoxic
  IRF Lucia reporter activity: 0.956

## C#Cc1cccc(Nc2ncnc3cc(OCCOC)c(OCCOC)cc23)c1.Cl (library stock concentration (final ~1000-fold dilution): 2 mM)
[2]; [5]
  IRF Lucia reporter activity: 0.27
[2]; agonist: LPS (TLR4) 0.1 ug/mL
  IRF Lucia reporter activity: 0.435

## COc1ccc(-c2cc(=O)c3c(O)cc(OC)cc3o2)cc1 (library stock concentration (final ~1000-fold dilution): 10 mM)
[2]; [5]
  IRF Lucia reporter activity: 0.974
[2]; agonist: LPS (TLR4) 0.1 ug/mL
  IRF Lucia reporter activity: 0.894

## COc1ccc(-c2cc(=O)c3c(O)cc(OC)cc3o2)cc1
[1]; [4]
  IRF Lucia reporter activity: 1.05

## O=c1c2ccccc2nc2n1CCc1c-2[nH]c2ccccc12
[1]; [4]
  IRF Lucia reporter activity: 0.949

## O=c1c2ccccc2nc2n1CCc1c-2[nH]c2ccccc12 (library stock concentration (final ~1000-fold dilution): 10 mM)
[2]; [5]
  IRF Lucia reporter activity: 1.04
[2]; agonist: LPS (TLR4) 0.1 ug/mL
  IRF Lucia reporter activity: 0.82

## O=C(/C=C/C=C/c1ccc2c(c1)OCO2)N1CCCCC1
[1]; [4]
  IRF Lucia reporter activity: 1.06

## O=C(/C=C/C=C/c1ccc2c(c1)OCO2)N1CCCCC1 (library stock concentration (final ~1000-fold dilution): 10 mM)
[2]; [5]
  IRF Lucia reporter activity: 0.947
[2]; agonist: LPS (TLR4) 0.1 ug/mL
  IRF Lucia reporter activity: 1.02

## CC(C)NCC(O)COc1cccc2[nH]c3ccccc3c12 (stereo not given) (library stock concentration (final ~1000-fold dilution): 10 mM)
[2]; [5]
  IRF Lucia reporter activity: 1.05
[2]; agonist: LPS (TLR4) 0.1 ug/mL
  IRF Lucia reporter activity: 0.836

## CC(C)NCC(O)COc1cccc2[nH]c3ccccc3c12 (stereo not given)
[1]; [4]
  IRF Lucia reporter activity: 1.05

## Cn1c(=O)cc(N2CCCC(N)C2)n(Cc2cc(F)ccc2C#N)c1=O (stereo not given) (library stock concentration (final ~1000-fold dilution): 10 mM)
[2]; [5]
  IRF Lucia reporter activity: 0.163
[2]; agonist: LPS (TLR4) 0.1 ug/mL
  IRF Lucia reporter activity: 0.823

## Cn1c(=O)cc(N2CCCC(N)C2)n(Cc2cc(F)ccc2C#N)c1=O (stereo not given)
[1]; [4]
  IRF Lucia reporter activity: 0.945

## CC(=O)/C(C)=N/O
[1]; [4]
  IRF Lucia reporter activity: 1.07

## CC(=O)/C(C)=N/O (library stock concentration (final ~1000-fold dilution): 10 mM)
[2]; [5]
  IRF Lucia reporter activity: 1.06
[2]; agonist: LPS (TLR4) 0.1 ug/mL
  IRF Lucia reporter activity: 0.904

## Cl.Cl.O=c1cc(CN2CCOCC2)occ1OCCCCCSc1ccnc2cc(C(F)(F)F)ccc12 (library stock concentration (final ~1000-fold dilution): 10 mM)
[3]; [5]
  IRF Lucia reporter activity: 0.502
[3]; agonist: LPS (TLR4) 0.1 ug/mL
  IRF Lucia reporter activity: 1.03

## Cl.Cl.O=c1cc(CN2CCOCC2)occ1OCCCCCSc1ccnc2cc(C(F)(F)F)ccc12
[1]; [6]
  IRF Lucia reporter activity: 0.925

## CCOC(=O)C(CCc1ccccc1)NC(C)C(=O)N1C(=O)N(C)CC1C(=O)O.Cl (stereo not given) (library stock concentration (final ~1000-fold dilution): 10 mM)
[2]; [5]
  IRF Lucia reporter activity: 0.944
[2]; agonist: LPS (TLR4) 0.1 ug/mL
  IRF Lucia reporter activity: 0.912

## CCOC(=O)C(CCc1ccccc1)NC(C)C(=O)N1C(=O)N(C)CC1C(=O)O.Cl (stereo not given)
[1]; [4]
  IRF Lucia reporter activity: 0.958

## CNCCc1ccccn1.Cl.Cl
[1]; [4]
  IRF Lucia reporter activity: 0.997

## CNCCc1ccccn1.Cl.Cl (library stock concentration (final ~1000-fold dilution): 10 mM)
[2]; [5]
  IRF Lucia reporter activity: 1.02
[2]; agonist: LPS (TLR4) 0.1 ug/mL
  IRF Lucia reporter activity: 0.874

## CC(O)(P(=O)(O)O)P(=O)(O)O (library stock concentration (final ~1000-fold dilution): 10 mM water)
[2]; [5]
  IRF Lucia reporter activity: 1.31
[2]; agonist: LPS (TLR4) 0.1 ug/mL
  IRF Lucia reporter activity: 0.711

## CC(O)(P(=O)(O)O)P(=O)(O)O
[1]; library stock concentration (final ~1000-fold dilution): 10 mM water, cytotoxicity flag (confluency mask): not cytotoxic
  IRF Lucia reporter activity: 1.31
